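Grown in 96-well plates, cells were treated for 48 hours with each compound at five concentrations. Insufficient inhibition: endpoint recorded as highest concentration tested. GI50 = concentration required for 50% inhibition of growth. TGI denotes the concentration required for complete inhibition of growth.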
Tested on: NCI-H322M lung
Test: NCI anticancer screen, dose series, 48 h

| Compound | GI50 [µM] | TGI [µM] |
| --- | --- | --- |
| Cn1cc(-c2cc3nc(-c4c[nH]c5ccccc45)cc(N)n3n2)c2cc(Cl)ccc21 | 2.21 | 6.11 |
| N#Cc1c(NC(=O)c2ccc(C(F)(F)F)cc2)sc2c1CCC(=O)C2 | 3.18 | 35.2 |
| O=C1CCC(N2Cc3cc(CC(=O)Nc4ccc(N5CCCCC5)cc4)ccc3C2=O)C(=O)N1 (centres undefined) | < 0.0122 | > 100 |
| Cn1cc(-c2cc(N)n3nc(-c4c[nH]c5ccccc45)cc3n2)c2ccccc21 | 2.81 | 10.5 |
| COc1ccc(C(SCCNCc2cc(N(C)C)ccn2)(c2ccccc2)c2ccccc2)cc1 | 0.753 | 15.6 |
| COc1ccc(Nc2nc(N)n(Cc3cccc(Br)c3)n2)cc1 | 34.9 | > 100 |
| Clc1ccc(-c2ccc(OCCCN3CCN(c4ccncc4)CC3)cc2)cc1 | 16.6 | 34.5 |

— PubChem BioAssay (NCI)
